Sequences and labels used below:
B1: PhoQ; a variant is named by its letters at X, in order, P23837 (parent)
chain: MKKLLRLFFPLSLRVRFLLATAAVVLVLSLAYGMVALIGYSVSFDKTTFRLLRGESNLFYTLAKWENNKLHVELPENIDKQSPTMTLIYDENGQLLWAQRDVPWLMKMIQPDWLKSNGFHEIEADVNDTSLLLSGDHSIQQQLQEVREDDDDAEMTHSVAVNVYPATSRMPKLTIVVVDTIPVELKSSYMVWSWFIYVLSANLLLVIPLLWVAAWWSLRPIEALAKEVRELEEHNRELLNPATTRELTSLVRNLNRLLKSERERYDKYRTTLTDLTHSLKTPLXXLQXXLRSLRSEKMSVSDAEPVMLEQISRISQQIGYYLHRASMRGGTLLSRELHPVAPLLDNLTSALNKVYQRKGVNISLDISPEISFVGEQNDFVEVMGNVLDNACKYCLEFVEISARQTDEHLYIVVEDDGPGIPLSKREVIFDRGQRVDTLRPGQGVGLAVAREITEQYEGKIVAGESMLGGARMEVIFGRQHSAPKDE

The list shows a part of the results.

The variants in this assay derive from B1. Description: enrichment ratio after two sorts for PhoP signalling (ratio (wild type AVST 3.29)); higher = more functional. As to conditions: with PhoP (E. coli).
Take QSTR: the enrichment ratio is not above 0.25. With ATLI the figure was 15.7; with YMCC, not above 0.25. For the variant RTAE, the enrichment ratio was not above 0.25. Turning to MMWN, the enrichment ratio is not above 0.25. As for FIGA, the enrichment ratio was not above 0.25. For LKTS, the enrichment ratio is not above 0.25.

Turning to AVLR, the enrichment ratio came to 7.21. On to FTGQ, for which the enrichment ratio was not above 0.25.

PKMH: the enrichment ratio is not above 0.25. For the variant RMWS, the enrichment ratio was not above 0.25.

Turning to PWYQ, the enrichment ratio is not above 0.25. With REWV the figure was not above 0.25; with AGFS, not above 0.25.

Regarding KQPC, the enrichment ratio was not above 0.25. The result for YHKT reads not above 0.25; that for MGRY, not above 0.25; that for DMHS, not above 0.25. Take KCMT: the enrichment ratio was not above 0.25.

For the variant VEHW, the enrichment ratio is not above 0.25. With RNLY the figure was not above 0.25; with TLYF, not above 0.25; with YKNF, not above 0.25. With QPVA, the enrichment ratio is not above 0.25. On to DTRI, for which the enrichment ratio turned out to be 1.89. With GQVW the figure was not above 0.25; with AHSE, not above 0.25. With RWEG the figure was not above 0.25. The result for EFLQ reads not above 0.25; that for AYVM, not above 0.25; that for DVQK, not above 0.25.

For LVYY, the enrichment ratio was not above 0.25. With HQGV, the enrichment ratio is 1.02. For the variant LCYI, the enrichment ratio stood at 0.711.

Regarding EHHY, the enrichment ratio was not above 0.25.

Regarding VIVG, the enrichment ratio was not above 0.25. The result for HHSP reads not above 0.25; that for MWMH, not above 0.25. For AVPT, the enrichment ratio is not above 0.25. In the case of DMHV, the enrichment ratio was not above 0.25. With GKQR the figure was not above 0.25; with QLGA, not above 0.25. For the variant RYFC, the enrichment ratio is not above 0.25. With EEVA the figure was not above 0.25.

With TQWC, the enrichment ratio was 29.7. For GIPM, the enrichment ratio was not above 0.25. EVFE: the enrichment ratio was not above 0.25. The result for IAIC reads not above 0.25; that for PQAS, not above 0.25.

Turning to HYQD, the enrichment ratio was not above 0.25. For TGDV, the enrichment ratio is not above 0.25.

With HIPV, the enrichment ratio was not above 0.25. Take VWTT: the enrichment ratio is not above 0.25. Regarding RTRS, the enrichment ratio was not above 0.25. The result for MRWQ reads not above 0.25. The result for FVDW reads not above 0.25.

DCHY: the enrichment ratio is not above 0.25. With AFGV the figure was not above 0.25; with YHKF, not above 0.25. Regarding KDLV, the enrichment ratio is not above 0.25. The result for DLTV reads not above 0.25. YYCW: the enrichment ratio was not above 0.25. The result for PIDP reads not above 0.25; that for YDLS, 0.28; that for SYDW, not above 0.25. With VECY the figure was not above 0.25; with ISSS, not above 0.25; with FVLP, not above 0.25. With LIMN the figure was not above 0.25; with FCCK, 4.54; with DFNE, not above 0.25. DYQE: the enrichment ratio is not above 0.25. The result for YASN reads not above 0.25; that for YYKL, not above 0.25; that for QSHI, 15.9. The result for YHHP reads not above 0.25.

For VDDF, the enrichment ratio is not above 0.25. For NAIF, the enrichment ratio is not above 0.25.

With DSDA, the enrichment ratio was not above 0.25. Take YNVN: the enrichment ratio was not above 0.25. With MPFW, the enrichment ratio is not above 0.25. Turning to LAML, the enrichment ratio is 6.38. The result for STQA reads not above 0.25; that for AFVF, 0.305. As to WCIR, the enrichment ratio was not above 0.25. As for TGWC, the enrichment ratio is 13.8.

Take HLKA: the enrichment ratio was not above 0.25.

With PEIM, the enrichment ratio is not above 0.25. As to PLHV, the enrichment ratio is not above 0.25. Regarding GCTC, the enrichment ratio is not above 0.25. SMED: the enrichment ratio was not above 0.25. On to YDAR, for which the enrichment ratio is not above 0.25.

Consider RFHM, for which the enrichment ratio was not above 0.25.

For the variant LSMK, the enrichment ratio is not above 0.25.

In the case of MPEW, the enrichment ratio is not above 0.25. The result for IYFM reads not above 0.25; that for PWIV, not above 0.25. With WRIR the figure was not above 0.25; with SIAY, 9.84.

As for CIFI, the enrichment ratio was not above 0.25. The result for TVIK reads not above 0.25. The result for NTAT reads not above 0.25; that for EVPF, not above 0.25.

In the case of VVFI, the enrichment ratio was not above 0.25. As to VHQP, the enrichment ratio was not above 0.25. The result for AWKY reads not above 0.25; that for FDDM, not above 0.25. The result for EPMI reads not above 0.25; that for GDDM, not above 0.25; that for SATF, 11.2. With DDAA the figure was not above 0.25; with LCLV, not above 0.25; with YQMS, not above 0.25. As for GDMC, the enrichment ratio came to 4.26. The result for QGKR reads not above 0.25. The result for LKGH reads not above 0.25.

For QVIV, the enrichment ratio is not above 0.25.

For SMEE, the enrichment ratio was not above 0.25.

VQMP: the enrichment ratio was not above 0.25. For the variant DWVM, the enrichment ratio was not above 0.25. With QRSV, the enrichment ratio is not above 0.25. With MYHE the figure was not above 0.25.

As for RTPL, the enrichment ratio is not above 0.25.

Regarding FFKD, the enrichment ratio is not above 0.25.

Consider TNNA, for which the enrichment ratio was 5.22.

For the variant PYRD, the enrichment ratio was not above 0.25. Regarding VGME, the enrichment ratio is not above 0.25. QAMW: the enrichment ratio was not above 0.25. Turning to QKQP, the enrichment ratio is not above 0.25. With VFDW the figure was not above 0.25; with STKA, not above 0.25. With QGQF the figure was not above 0.25; with RWRT, not above 0.25. With YCFC, the enrichment ratio was not above 0.25. Take MHTQ: the enrichment ratio is not above 0.25. The result for QITI reads not above 0.25.

On to QFDE, for which the enrichment ratio was not above 0.25. With AFGN the figure was not above 0.25; with VSWL, 1.26. As to TNTR, the enrichment ratio is not above 0.25. For the variant TYQM, the enrichment ratio worked out at 11.1. As to QDTW, the enrichment ratio was not above 0.25. Consider WAYR, for which the enrichment ratio was not above 0.25.

For the variant LKLS, the enrichment ratio is not above 0.25. With YLFE the figure was not above 0.25.

On to YFQQ, for which the enrichment ratio is not above 0.25. For AYNG, the enrichment ratio is not above 0.25. With EDIG the figure was not above 0.25. On to FVGM, for which the enrichment ratio was not above 0.25.

As to VRQM, the enrichment ratio is not above 0.25. Regarding INLF, the enrichment ratio stood at 0.354.

As for WVCS, the enrichment ratio was not above 0.25. As for TQIV, the enrichment ratio was 1.59.

Source of the values: a collection of fitness landscapes (doi:10.1126/science.1257360).
